Test results reported in patent publication US11155596B2, “Polypeptide” (AFFIBODY AB, priority 2016, dated 2021).

B1: [^18F]AIF-NOTA-Z15168: Z15168-Cys conjugated with NOTA at C-terminal cysteine and radiolabeled with [^18F]AIF (conjugate)
chain: AEAKYAKERNNAAFEILRLPNLTNGQHWAFIWKLADDPSQSSELLSEAKKLNDSQAPKVDC
modifications: NOTA-maleimide on the unique C-terminal cysteine, labelled with [18F]AIF
notes: Z15168-Cys conjugated with NOTA at C-terminal cysteine and radiolabeled with [^18F]AIF
B2: [^18F]AIF-NOTA-Z18609: Z18609-Cys conjugated with NOTA at C-terminal cysteine and radiolabeled with [^18F]AIF (conjugate)
chain: B1 chain with N11A, F14Y, R18Y, G25A, H27K, A35D
modifications: NOTA-maleimide on the unique C-terminal cysteine, labelled with [18F]AIF
notes: Z18609-Cys conjugated with NOTA at C-terminal cysteine and radiolabeled with [^18F]AIF

Conditions: rhesus monkey, in vivo
Procedure: Fasted rhesus monkeys were sedated with Ketamine (10 mg/kg, intramuscular). An intrevenous catheter was inserted into the right and left saphenous veins and the animals were maintained on propofol anesthesia (5 mg/kg for induction and 0.45 mg/kg/min throughout the scanning procedure). Following the initial induction with propofol, the animal was intubated and maintained on ventilated oxygen/air gas mixture at approximately 10 cm^3/kg/breath, and 23 respirations per minute. Animals were instrumented with a temperature probe, a pulse oximeter and an end tidal CO2 monitor. Body temperature was maintained using K-module heating pads. General fluid therapy was maintained with Lactated Ringer's solution (10 ml/kg/h i.v.) throughout the scanning procedure. […] Whole body dynamic scan was initiated at the start of the tracer injection and acquired for 180 min using a Siemens Biograph 64 TPTV PET/CT scanner. Whole body reconstruction was performed using the PET/CT scanner vendor supplied software. PET image analysis was performed using customized Matlab based software.

Molecule	lymph node and spleen targeting
B1	lymph node and spleen targeting was observed
B2	lymph node and spleen targeting was observed

Residue numbers refer to the chain shown, from its start.
